{"source": "PubChem BioAssay AID504339", "about": "(National Center for Advancing Translational Sciences (NCATS), 2011)", "note": "Hit rate of the full screen: of about 390,000 compounds, about 17,000 (4.4%) were called active. The inconclusive results got no clear call from the source; some entries with a clear call stand among them for comparison. The call rests on the fitted dose curve; in most records, active means well fitted inhibition curve with a large enough effect; inconclusive means small, poorly fitted or top-dose-only effect; inactive means no such curve, though single readings can be large or run the other way. A potency beside an inconclusive call is a rough fit, not a confirmed value. Potency means the concentration at half of the fitted maximal effect; tags describe the fitted curve by direction and shape."}
{"molecular_target": "Lysine-specific demethylase 4A (Homo sapiens) (UniProt O75164)", "sequence (O75164 whole entry, looked up, the tested form may be a part)": "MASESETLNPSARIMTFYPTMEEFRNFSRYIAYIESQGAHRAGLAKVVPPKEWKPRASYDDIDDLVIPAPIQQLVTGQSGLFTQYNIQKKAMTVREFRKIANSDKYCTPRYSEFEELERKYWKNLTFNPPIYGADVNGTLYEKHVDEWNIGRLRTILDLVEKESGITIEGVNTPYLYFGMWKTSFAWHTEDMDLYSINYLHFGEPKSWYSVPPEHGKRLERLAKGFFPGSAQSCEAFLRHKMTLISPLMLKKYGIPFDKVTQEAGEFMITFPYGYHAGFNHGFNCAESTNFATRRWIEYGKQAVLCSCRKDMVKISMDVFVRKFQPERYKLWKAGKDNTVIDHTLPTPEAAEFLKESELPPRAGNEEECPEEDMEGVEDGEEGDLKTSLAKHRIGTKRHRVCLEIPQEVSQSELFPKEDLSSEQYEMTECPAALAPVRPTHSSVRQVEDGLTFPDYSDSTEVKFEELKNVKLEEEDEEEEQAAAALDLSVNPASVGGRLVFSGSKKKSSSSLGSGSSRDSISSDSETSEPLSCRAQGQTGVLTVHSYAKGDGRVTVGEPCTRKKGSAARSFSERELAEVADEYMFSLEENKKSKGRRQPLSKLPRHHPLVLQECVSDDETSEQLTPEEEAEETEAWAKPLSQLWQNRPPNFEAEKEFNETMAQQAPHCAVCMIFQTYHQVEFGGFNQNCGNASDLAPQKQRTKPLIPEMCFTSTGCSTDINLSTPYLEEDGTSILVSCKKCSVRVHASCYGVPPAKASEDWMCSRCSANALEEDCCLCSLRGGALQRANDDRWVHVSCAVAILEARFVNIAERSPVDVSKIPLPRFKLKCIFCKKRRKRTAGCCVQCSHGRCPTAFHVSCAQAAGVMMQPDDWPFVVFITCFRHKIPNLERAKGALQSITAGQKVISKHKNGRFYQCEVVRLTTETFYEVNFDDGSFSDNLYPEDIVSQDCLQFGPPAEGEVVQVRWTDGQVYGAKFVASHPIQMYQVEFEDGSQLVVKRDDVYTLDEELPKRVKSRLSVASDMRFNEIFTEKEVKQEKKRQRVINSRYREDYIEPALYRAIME", "assay": "qHTS Assay for Inhibitors of JMJD2A-Tudor Domain; further: nearly all actives have a fitted effect of over 50% in size", "settings": "AlphaScreen JMJD2A-Tudor / H3K4me3 peptide binding; series mostly up to 114 µM"}
{"compound": "c1c2c(cc3sc(N4CCOCC4)nc13)OCO2", "Potency": "inconclusive: 89.1 µM [inhibitor, partial curve]"}
{"compound": "COc1ccc(NC(C)C(=O)Nc2ccc(C(C)(C)C)cc2)cc1Cl", "note": "(centres undefined)", "Potency": "inconclusive: 44.7 µM [inhibitor, partial curve]"}
{"compound": "CCCC(=O)NC(=S)Nc1cccc(NC(=O)c2ccc(Cl)cc2Cl)c1", "Potency": "inconclusive: 5.62 µM [inhibitor, single point]"}
{"compound": "CCC(=O)N/C(=N/c1nc(C)cc(C)n1)Nc1ccccc1", "Potency": "inconclusive: 89.1 µM [inhibitor, single point]"}
{"compound": "CC(C)(C)C1CCc2oc3ccc(NS(=O)(=O)c4ccc(C(=O)O)cc4)cc3c2C1", "note": "(centres undefined)", "Potency": "inconclusive: 56.2 µM [inhibitor, partial curve]"}
{"compound": "Cc1cc2cc(CNS(=O)(=O)N(C)C)ccc2[nH]1", "Potency": "inconclusive: 50.1 µM [inhibitor, partial curve]"}
{"compound": "CN1CCc2c(sc3c2C(=O)NC(c2ccc(C(C)(C)C)cc2)N3)C1", "note": "(centres undefined)", "Potency": "inconclusive: 56.2 µM [inhibitor, single point]"}
{"compound": "CNC(=S)N/N=C/c1ccc(-c2cccc(C(=O)O)c2)o1", "Potency": "inactive"}
{"compound": "CCOc1ccc(NC(=O)c2c(NC(=O)Cc3ccccc3)sc3c2CCCCC3)cc1", "Potency": "inconclusive: 56.2 µM [inhibitor, partial curve]"}
{"compound": "COC(=O)[C@]1(C)N[C@H](CN(C)S(=O)(=O)c2ccc(OC)cc2)[C@@H]2C(=O)N(C)C(=O)[C@@H]21", "Potency": "inconclusive: 89.1 µM [inhibitor, single point]"}
{"compound": "Cc1[nH]n(-c2ccc(Cl)cc2)c(=O)c1C(=O)c1ccccc1", "Potency": "inactive"}
{"compound": "COc1ccc(NCc2cccn2-c2nnc(N3CCCCC3)s2)cc1OC", "Potency": "inconclusive: 56.2 µM [inhibitor, partial curve]"}
{"compound": "CCOc1ccc(NS(=O)(=O)c2ccc3c(c2)CCCN3C(=O)C2CCC2)cc1", "Potency": "inactive"}
{"compound": "Cc1ccccc1NC(=O)COc1coc(CN2CCCc3ccccc32)cc1=O", "Potency": "inconclusive: 89.1 µM [inhibitor, partial curve]"}
{"compound": "Cc1ccc(-c2cc(C(=O)Nc3cccc(S(=O)(=O)N(C)C)c3)c3ccccc3n2)o1", "Potency": "inconclusive: 15.8 µM [inhibitor, full curve, poor fit]"}
{"compound": "CCOC(=O)CSc1nc2c(sc3ccccc32)c(=O)n1CCO", "Potency": "active: 56.2 µM"}
{"compound": "CN(C)c1cccc(C(=O)Nc2ccc(S(=O)(=O)Nc3nccs3)cc2)c1", "Potency": "inconclusive: 79.4 µM [inhibitor, partial curve]"}
{"compound": "COc1ccc(C(=O)CN2C(=O)NC3(CCCCCC3)C2=O)cc1", "Potency": "inactive"}
{"compound": "O=c1cc(CN2CCc3ccccc32)nc2sccn12", "Potency": "active: 17.8 µM"}
{"compound": "Cc1ccc(CN2CCN(/N=C/c3sccc3C)CC2)c(C)c1", "Potency": "active: 22.4 µM"}
{"compound": "CCOc1ccc(C(=O)NC(=S)Nc2ccccc2N2CCCCC2)cc1[N+](=O)[O-]", "Potency": "inconclusive: 50.1 µM [inhibitor, partial curve]"}
{"compound": "COc1ccc(C)cc1N(CC(=O)Nc1ccc(S(=O)(=O)N2CCCC2)cc1)S(C)(=O)=O", "Potency": "inconclusive: 31.6 µM [inhibitor, partial curve]"}
{"compound": "COc1ccccc1NS(=O)(=O)c1cc(NC(=O)c2cc(=O)[nH]c3ccccc23)ccc1N1CCOCC1", "Potency": "inconclusive: 35.5 µM [inhibitor, partial curve]"}
{"compound": "COc1ccc(S(=O)(=O)N(C)C[C@H]2Oc3ccc(NC(=O)Nc4ccc5c(c4)OCO5)cc3CC(=O)N([C@@H](C)CO)C[C@@H]2C)cc1", "Potency": "inconclusive: 39.8 µM [inhibitor, partial curve]"}
{"compound": "CCOc1cc2[nH]c(=S)n(CC3CCCO3)c(=O)c2cc1OCC", "note": "(centres undefined)", "Potency": "inconclusive: 79.4 µM [inhibitor, partial curve]"}
{"compound": "COc1cc(-c2nc(Cn3nnc(C(=O)Nc4cccc(Cl)c4)c3C)c(C)o2)cc(OC)c1OC", "Potency": "inactive"}
{"compound": "COc1cccc(OCCCCN2CC(C)OC(C)C2)c1", "note": "(centres undefined)", "Potency": "active: 6.31 µM"}
{"compound": "COc1ccc(C(=O)O/N=C(/c2ccccc2)c2ccncc2)cc1OC", "Potency": "inconclusive: 79.4 µM [inhibitor, single point]"}
{"compound": "Oc1c(Cl)c(Cl)c2ncccc2c1Cl", "Potency": "inconclusive: 25.1 µM [inhibitor, single point]"}
{"compound": "Cc1ccc(-c2ccc(SCC(=O)c3ccccc3)nn2)cc1", "Potency": "inactive"}
{"compound": "O=C(O)c1ccc(N/N=C/C(Br)=C/c2ccccc2)cc1", "Potency": "inconclusive: 39.8 µM [inhibitor, partial curve]"}
{"compound": "O=C(Cc1ccc([N+](=O)[O-])cc1)N1N=C2CCCCC2C1(O)C(F)(F)F", "note": "(centres undefined)", "Potency": "inactive"}
{"compound": "NC(=O)C1CCN(c2oc(-c3cccs3)nc2S(=O)(=O)c2ccc(Cl)cc2)CC1", "Potency": "inconclusive: 44.7 µM [inhibitor, partial curve]"}
{"compound": "COc1cc(OC)c(C2N(c3cc(C)on3)C(=O)C3CCCN32)cc1OC", "note": "(centres undefined)", "Potency": "inconclusive: 20 µM [inhibitor, full curve, poor fit]"}
{"compound": "O=C(O)c1ccccc1C(=O)Nc1ccc(Oc2ccc3ccccc3c2)cc1", "Potency": "inconclusive: 70.8 µM [inhibitor, partial curve]"}
{"compound": "CCOC(=O)[C@H]1[C@H]2COc3ccccc3[C@@H]2N2C(=O)c3c(C)cc(C)cc3NC(=O)[C@@]12C", "Potency": "inactive"}
{"compound": "CN(C)Cc1c(O)ccc2c(=O)c(-c3ccc(Cl)cc3)coc12", "Potency": "inconclusive: 28.2 µM [inhibitor, single point]"}
{"compound": "CCOCCCN1C(=O)c2ccccc2CC1(C)C(=O)NC1CCCCC1", "note": "(centres undefined)", "Potency": "inactive"}
{"compound": "Cc1ccc(N=C2NC(=O)/C(=C\\c3cccs3)S2)cc1C", "Potency": "inconclusive: 70.8 µM [inhibitor, single point]"}
{"compound": "Cc1ccc(CCNC(=O)C2CCC(=O)N(Cc3ccccc3F)C2)o1", "note": "(centres undefined)", "Potency": "inconclusive: 44.7 µM [inhibitor, partial curve]"}
{"compound": "Cc1ccc(C(=O)NC(=S)NNS(=O)(=O)c2ccc(C)cc2)cc1", "Potency": "inactive"}
{"compound": "COc1ccc(-n2c(=S)[nH]c3cc(C(=O)NCCCN4CCCC4=O)ccc3c2=O)cc1", "Potency": "inactive"}
{"compound": "Cc1ccc(OCC(=O)N2CCCC(CO)(CCOc3ccccc3)C2)cc1", "note": "(centres undefined)", "Potency": "inactive"}
{"compound": "CCNC(=S)/N=C(\\N)Nc1nc(C)c2cc(C)ccc2n1", "Potency": "inconclusive: 89.1 µM [inhibitor, partial curve]"}
